This is an account of results in ChEMBL document CHEMBL4888484, “Replenishing the malaria drug discovery pipeline: Screening and hit evaluation of the MMV Hit Generation Library 1 (HGL1) against asexual blood stage Plasmodium falciparum ,using a nano luciferase reporter read-out” (2022).

Among all 4,800 compounds or so, about 420 (8.8%) showed an effect of 50% or more. This is one part of the list.

Usually % Inhibition stands for the change of the read-out against control, counted positive when it falls.

The subject of the assay is Plasmodium falciparum. Nature of the assay: Confirmatory screen in NF54 nanoGlo assay, in single point, at 2uM, 72h. The conditions noted are these: timepoint 72 hour. In kind it is functional, Erythrocyte.
For `O=S1(=O)CCN(C2CCN(Cc3c(F)cccc3F)CC2)CC1`, the “% Inhibition” value is on record as 4%. Turning to `COCCCn1c(=O)c2ccccc2n(CC(=O)N(C)c2ccccc2)c1=O`, the “% Inhibition” value was -4%. For `O=C(N[C@@H](Cc1ccccc1)C(=O)OCc1cnc(-c2ccccc2)o1)c1ccccc1` the value was -5%; for `Cc1ccc(-c2nc(CNC(=O)C[C@H]3CNCCO3)[nH]c2-c2ccccn2)cc1`, 22%; for `OCCCN1c2ccccc2Nc2nnc(-c3ccccc3)cc21`, -2%.

For the compound `S=c1cc(-c2ccccc2)n(Cc2ccco2)c2c1CCCC2`, the “% Inhibition” value was 38%. In the case of `Cc1ccccc1[C@H](CC(=O)O)NC(=O)C(F)(F)F` it was 8%. With `Cc1cc(N(CCO)C2CC2)nc(C2CC2)n1`, the “% Inhibition” value was -8%. Consider `Cc1cnc(N2CCCC2C2CCCO2)s1` (configuration not stated), for which the “% Inhibition” value is listed as -11%. Take `O=C(c1cn[nH]c1-c1ccccc1)N1CCCCCC1`: the “% Inhibition” value is reported as -3%.

With `Cc1cc(N2CC(OCc3ccccc3)C2)nc(Nc2cccc(O)c2)n1`, the “% Inhibition” value came out at 96%. For the compound `Cn1cc(NC(=O)Nc2cccc(OCC(F)F)n2)cn1`, the “% Inhibition” value is on record as -9%. For `C[C@H]1[C@@H]2[C@@H](O)C([C@H](C)C(=O)NC3CCCC3)CC[C@@]2(C)CC[C@@H]1NC(=O)c1ccc(C#N)cc1` (some centres not stated), the “% Inhibition” value is on record as -10%.

Take `CN(C)c1ccc(NC(=O)C(C2CC=CCC2)N(Cc2nc(-c3ccccc3)cs2)C(=O)Cn2nnc3ccccc32)cc1` (configuration not stated): the “% Inhibition” value is 1%.

For the compound `Cc1ccc(Cl)c(OC(C)C(=O)N2C3CCC2CC(O)(Cc2ccc(F)cc2F)C3)c1` (configuration not stated), the “% Inhibition” value is on record as 2%. For `COc1ccccc1[C@@H]1C=C(c2cccnc2)Nc2ncnn21` the value was -6%. For `O=C(O)c1cc(N2CCC(Cc3ccccc3)CC2)ccc1NC(=O)C1CCC1` the value was -14%; for `CCC(C)(CC)[C@@](O)(C#CC[N+]1(Cc2ccccc2Cl)CCCCC1)c1ccccc1`, 4%. Take `Cn1ncc2c(NCCO)nc(N3CCCCCC3)nc21`: the “% Inhibition” value was 5%.

Consider `CNC(=O)Nc1cc(C)cc2c(-c3ccccc3)c(C(=O)NCc3cccc(F)c3)[nH]c12`, for which the “% Inhibition” value is 2%. Regarding `Cc1nn(-c2ccccc2)c(C)c1C(=O)Nc1cccc(N2CCCC2=O)c1`, the “% Inhibition” value is on record as -11%.

Turning to `CN(C(=O)[C@@H]1CCCN1C(=O)OC(C)(C)C)c1nccs1`, the “% Inhibition” value is reported as -10%.

With `O=C1CCc2cc(OS(=O)(=O)c3ccc(F)cc3)ccc2N1`, the “% Inhibition” value is 3%. For `O=C1C[C@@H](C(=O)N2CCC3(CCCCC3)C2)CCN1` the value was -3%; for `c1cn(CCCOc2ccc3c(c2)OCO3)nn1`, 3%.

With `CN(CC(=O)NCc1ccco1)c1nnc(N2CCCC2=O)s1`, the “% Inhibition” value was 7%. In the case of `Cn1nc(C2CC2)c2c(C(F)F)cc(-c3ccc4c(c3)OCO4)nc21` it was -3%; in that of `Cn1cccc1CNCc1ccncc1`, 0%; in that of `COc1ccc(-n2ncc(Oc3cccc(C)c3)c(Nc3cccc(C(=O)NCc4ccc(F)cc4)c3)c2=O)cc1`, 50%. In the case of `CC(C)c1c2cc3c(cc2nn1-c1ccccc1)OCCO3` it was -9%; in that of `COc1ccc(-c2c[n+](-c3ccc(Cl)cc3)c3n2CCCCC3)cc1`, 60%; in that of `COC(=O)[C@]1(C)CN(C(=O)NCc2cc(C#N)ccc2F)C[C@H]1C`, 7%. In the case of `Cc1cc(=O)[nH]c(-n2nc(C3CC3)cc2NC(=O)c2ccc(C(C)(C)C)cc2)n1`, the “% Inhibition” value was determined as 57%. With `COc1cc(NCC(=O)NC(N)=O)cc(OC)c1OC`, the “% Inhibition” value is -4%.

`O=C(NC[C@H]1CCCO1)c1cc(C(=O)C2CC2)c[nH]1`: the “% Inhibition” value was -13%.

For `Cc1nc(NC(=O)c2ccn(COc3ccc(F)c(Cl)c3)n2)sc1C`, the “% Inhibition” value is listed as -15%. In the case of `CCn1ccnc1C(=O)Nc1ccc(OC)nc1` it was -6%. In the case of `COc1ccc(-n2nc(C)c(Cc3ccc(Cl)cc3)c2O)cc1`, the “% Inhibition” value amounted to 0%.

`CC[N+](C)(CC)CCOc1cc(C)c2ccccc2n1`: the “% Inhibition” value amounted to 53%.

For the compound `CCn1ncc(CN2CC[C@@H]3C(=O)NCCCCCCN(Cc4ccncc4)[C@@H]3C2)c1C`, the “% Inhibition” value was found to be 31%.

Regarding `Cn1ccnc1CCNC(=O)C(=O)Nc1cc(F)c(F)c(F)c1`, the “% Inhibition” value is -4%.

Turning to `CCn1nccc1CN(C)C(=O)c1cc(S(=O)(=O)N(C)C)c(Cl)cc1Cl`, the “% Inhibition” value was -17%. With `Cc1ccc(NC(=O)Cn2c(C)cc(=O)c3sccc32)cc1Cl`, the “% Inhibition” value is -5%.

Consider `CCOC(=O)N1CCN(C(=O)C2[C@H]3C(=O)N(c4ccc(OC)cc4)C[C@]34C=C[C@H]2O4)CC1` (some centres not stated), for which the “% Inhibition” value worked out at 4%. For `CCOc1cccc(-c2ccc3nc(-c4cccc(OC)c4)c(CCC(=O)NCCN4CCCC4)n3c2)c1` the value was 61%; for `O=C(O)c1cc(-c2ccc3c(c2)OCCO3)nc2c(Br)cc(Br)cc12`, -5%; for `COc1ccc(-c2nn3c([C@H]4CCCN(C)C4)nnc3s2)cc1Cl`, -7%. On to `COC(=O)C[C@H](CC(C)C)c1c(O)n[nH]c1C`, for which the “% Inhibition” value was -12%.

With `Cc1cn(Cc2ncc(C(F)(F)F)cc2Cl)c(=O)[nH]c1=O`, the “% Inhibition” value is listed as -6%.

Take `O=C(NCCc1cc(F)cc(F)c1)C1CC2CCC1C2` (configuration not stated): the “% Inhibition” value was 0%.

Consider `Cc1ccc(-c2ccnn2C)cc1NC(=O)[C@H]1CCCOC1`, for which the “% Inhibition” value is listed as -3%.

As for `O=C(CN1CCOCC1)N1CCN(CCCOc2ccccc2)CC1`, the “% Inhibition” value is on record as 19%. With `C[C@](O)(C(=O)NCC(=O)NC1CCCC1)c1ccc(F)cc1`, the “% Inhibition” value was determined as 2%.

Regarding `O=C(Cc1ccc2oc(-c3cccnc3)nc2c1)N1CCN(c2cccc(C(F)(F)F)c2)CC1`, the “% Inhibition” value is -6%. Take `N#Cc1cccc(CNc2ccc3c(c2)CCC(=O)N3)c1`: the “% Inhibition” value is given as -7%.

On to `CN1CCCN(c2ccc(NC(=O)c3cccc(Cl)c3)c(C(=O)O)c2)CC1`, for which the “% Inhibition” value is listed as -5%. In the case of `Cc1[nH]c2ncnc(NC(=O)c3cccc(-n4ccnn4)c3)c2c1C` it was 46%; in that of `COc1ccc(-[n+]2c(-c3ccc(-c4ccccc4)cc3)cn3c2COCC3)cc1`, 66%; in that of `Cc1ccc(C(=O)Nc2c(C(N)=O)sc3nc(C(F)F)cc(C4CC4)c23)cc1`, -16%. Regarding `Cc1nc(CN2C(=O)C(=O)c3cc(Br)ccc32)cs1`, the “% Inhibition” value is on record as -2%. With `Cc1ccc(N2CCCC2)c(C(=O)N2CCN(Cc3c(C)nc4cc(C)ccn34)CC2)c1`, the “% Inhibition” value worked out at 3%. As to `Cc1ccc(N2C[C@@H](c3nnc(N)o3)CC2=O)cc1`, the “% Inhibition” value is 6%. `Cc1[nH]c2nc3ccccc3n2c(=O)c1Cc1ccccc1Cl`: the “% Inhibition” value is recorded as -9%. Turning to `CN(Cc1ccc(F)cn1)c1ccn(C)n1`, the “% Inhibition” value was -6%.

For the compound `COc1cc(OC)cc(N2CCN(C(=O)c3cccc(F)c3)[C@@H](C)C2=O)c1`, the “% Inhibition” value is listed as -11%.

With `Clc1cccc(-c2c[nH]c([C@@H]3COCCN3C3CCOCC3)n2)c1`, the “% Inhibition” value is on record as -9%.

In the case of `N#Cc1cc(C(=O)N[C@H]2CCCOCC2)ccn1`, the “% Inhibition” value came to 7%. `Cn1ncc(Br)c1C(=O)N1CCc2ccccc2C1`: the “% Inhibition” value is recorded as 4%.

Take `COc1ccc(-c2nccn3cc(C(=O)N4CCCCCC4)nc23)cc1`: the “% Inhibition” value is 0%.

With `Cc1c(NS(=O)(=O)c2ccc(Cl)cc2)c(-n2cnnc2)nn1C`, the “% Inhibition” value is reported as -7%. For `C[C@H](Oc1ccccc1)C(=O)N1CCC(c2nc(-c3ccc4c(c3)OCO4)no2)CC1` the value was 6%; for `CN1CCN(C2(CNc3ccnc4ccccc34)CCCC2)CC1`, 91%.

With `Cc1nc(-c2ccc(NCc3cc4ccccc4o3)nc2)[nH]c(=O)c1C`, the “% Inhibition” value was -10%. For `CC(C)c1nn(C)cc1NS(=O)(=O)CCCC(F)(F)F` the value was 2%. Consider `Fc1ccc(-n2ncc3c(N4CCC[C@H]4c4cccs4)ncnc32)cc1`, for which the “% Inhibition” value was -2%.

With `N#CC(c1ccc(Cl)cc1)N1N=C(c2ccccc2)CC1c1ccccc1` (configuration not stated), the “% Inhibition” value was 4%. For `C[C@H](N)c1ccc(Nc2ncc3cc(-c4ccncc4)ccc3n2)cc1` the value was 93%.

For the compound `CC(C)(C)c1cc(NC(=O)c2ccccc2F)n([C@H]2CCS(=O)(=O)C2)n1`, the “% Inhibition” value is recorded as -12%. For `O=C(O)C1C2CC2CN1C(=O)c1ccc(Cl)cc1Cl` (configuration not stated) the value was -15%; for `c1cncc(OCc2cnc3ccccn23)c1`, -10%; for `Cc1ccc(-c2noc(CCC(=O)NC3CCCCC3)n2)c(=O)n1C(C)C`, -6%. On to `OCCN(Cc1nc2ccccc2o1)c1ccc(Br)cc1`, for which the “% Inhibition” value was -1%. For `Cc1cccc(NC(=O)c2c(C)sc3ncnc(N4CCCCC4)c23)c1` the value was 3%; for `Cc1nn(Cc2ccccc2)c2c1C(c1cccc(Cl)c1Cl)c1c(C)nn(Cc3ccccc3)c1O2`, 9%. As to `O=C(c1ccccc1)c1ccc(O)c(CN2CCCN(c3ccc(C(F)(F)F)cn3)CC2)c1O`, the “% Inhibition” value was found to be 79%. As for `CC(C)(C)OC(=O)NS(=O)(=O)Nc1nccs1`, the “% Inhibition” value is listed as -13%. In the case of `Cc1cc(=O)[nH]c(-n2nc(C3CC3)cc2NC(=O)C(c2ccccc2)c2ccccc2)n1` it was 91%; in that of `N#Cc1cccc(CNC2CCCCCC2C(N)=O)c1` (configuration not stated), -5%; in that of `Oc1ccccc1-c1cnc(C(F)(F)F)s1`, 94%.

Regarding `CC(C)CN1C(=O)[C@H](Cc2ccccc2)NC12CCN(C(=O)c1ccc(Cl)cc1)CC2`, the “% Inhibition” value was found to be 14%. Take `COc1ccc(-c2cc(C(F)(F)F)nc(-n3nc(-c4cccc(OC)c4)c(Cl)c3-c3cccc(OC)c3)n2)cc1`: the “% Inhibition” value came out at 84%.

Regarding `O=C(Nc1ccccc1N1CCCC1)[C@@H]1Cc2ccccc2O1`, the “% Inhibition” value is -5%. In the case of `Cc1cc(NC(=O)[C@H](C)OC(=O)c2ccc3c(c2)OCC(=O)N3)on1` it was -9%; in that of `Cc1cc(C)n(-c2ccc(N3CC4CCC3C4)nc2)n1` (configuration not stated), -8%.

On to `CCn1cc2c(C(F)F)cc(=O)n(CCC(=O)NCc3ccc(F)cc3)c2n1`, for which the “% Inhibition” value is reported as -6%. For `O=C(NCCOc1ccccc1)N1CCN(S(=O)(=O)c2cccc(F)c2)CC1` the value was 2%; for `Cc1nn(CCC(=O)NC2CCCC2)cc1Br`, -10%. For `CC(C)(C)c1nc(CNc2ccc(S(=O)(=O)CCO)cc2)no1` the value was -9%; for `Cc1cc(Br)ccc1CNC(=O)CN1CCCCC1=O`, 2%; for `CC(C)(C)N(CC(N)=O)CC(=O)NC(=O)NC1CCCCC1`, 5%. For `CC(=Cc1cn(C(C)(C)C)nn1)c1nc(C)c(C#N)c(=O)[nH]1` the value was 0%; for `Cn1c(=O)c2c(c(-c3ccccc3)cn2C)n(CC(=O)NCc2ccco2)c1=O`, -9%.
